About 120 (0.75%) of roughly 16,000 compounds were called active. Roughly 4% stayed inconclusive and do not appear here. Calls follow the shape of the dose curve; as a rule, active = well fitted inhibition curve with a large enough effect; inconclusive = small, poorly fitted or top-dose-only effect; inactive = no such curve, though single readings can be large or run the other way. Some of the results follow.

Sequence of UniProt O95398 (O95398 whole entry, looked up): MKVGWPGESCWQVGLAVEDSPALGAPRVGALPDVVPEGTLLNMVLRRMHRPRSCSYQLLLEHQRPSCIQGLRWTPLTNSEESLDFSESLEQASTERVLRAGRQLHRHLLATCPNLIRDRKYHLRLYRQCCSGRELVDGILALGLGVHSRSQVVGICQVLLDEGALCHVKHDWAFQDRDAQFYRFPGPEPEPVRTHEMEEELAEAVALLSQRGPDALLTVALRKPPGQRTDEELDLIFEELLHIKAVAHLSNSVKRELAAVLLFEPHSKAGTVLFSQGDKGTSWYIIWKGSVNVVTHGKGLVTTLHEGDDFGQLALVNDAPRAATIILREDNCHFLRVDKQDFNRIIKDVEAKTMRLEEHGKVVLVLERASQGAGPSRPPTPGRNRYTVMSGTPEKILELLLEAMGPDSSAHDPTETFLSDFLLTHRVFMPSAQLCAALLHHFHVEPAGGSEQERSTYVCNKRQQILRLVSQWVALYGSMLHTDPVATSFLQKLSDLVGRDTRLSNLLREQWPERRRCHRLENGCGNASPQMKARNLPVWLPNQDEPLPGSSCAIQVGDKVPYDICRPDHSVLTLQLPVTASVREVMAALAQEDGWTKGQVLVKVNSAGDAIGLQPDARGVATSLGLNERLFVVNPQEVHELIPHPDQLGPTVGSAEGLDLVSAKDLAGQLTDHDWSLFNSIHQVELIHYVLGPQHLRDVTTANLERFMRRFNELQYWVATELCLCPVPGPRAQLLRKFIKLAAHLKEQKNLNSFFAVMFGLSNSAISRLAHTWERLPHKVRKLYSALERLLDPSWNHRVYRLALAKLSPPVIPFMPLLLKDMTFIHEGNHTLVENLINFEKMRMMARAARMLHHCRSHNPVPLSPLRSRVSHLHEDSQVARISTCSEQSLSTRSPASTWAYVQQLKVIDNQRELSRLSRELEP

In this experiment the target is Rap guanine nucleotide exchange factor 3 (Homo sapiens) (UniProt O95398). Put plainly: Validation qHTS for antagonist of cAMP-regulated guanine nucleotide exchange factor 3 (EPAC1).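 Also: plate controls were DMSO for no effect and ATA control for full effect; nearly all actives have a fitted effect of over 75% in size.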 To be noted: EPAC1 Rap1B-BODIPY-GDP exchange, fluorescence; series mostly up to 150 µM; activity change, negative = inhibition: at the top concentration. The procedure, abridged:
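EPAC1 (100 nM) mixed with 250 nM RAP1B-BODIPY-GDP and 50 uM GDP; compounds in concentration series, 5 min at room temperature. Fluorescence (ex 480/em 540 nm) read every 5 min for 30 min; normalized to ATA control and DMSO.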
Background: qHTS replaces the single test concentration by a dilution series.
For the molecule `COc1ccc(-c2cc(=O)c3c(O)cc(O)c(-c4cc(-c5cc(=O)c6c(O)cc(O)cc6o5)ccc4OC)c3o2)cc1`, the “activity change, negative = inhibition” value is inactive: 24.1%. The same measure for `CCCCC(CC)COC(=O)c1ccccc1C(=O)O` (configuration not stated): inactive: 31.8% [at 320 µM]; for `Cc1oc(-c2cccc(NC(=O)c3ccccn3)c2)nc1CNC(=O)c1cc(F)c(F)cc1F`: inactive: 13.7%; for `Cc1ccc(O)c(N=Nc2ccccc2)n1`: “inactive”. The figure for `CC(C)(C)NC[C@@H](O)COc1nsnc1N1CCOCC1` is inactive: -6.18%. The same measure for `COc1ccc2c(c1)OC/C(=C\c1ccc(OC)c(O)c1)C2=O`: inactive: -25%.

Regarding `COc1ccccc1N1CCN(CCn2c(=O)c3c(c4ccccc4n3C)n(C)c2=O)CC1`, the activity change, negative = inhibition result is “inactive”. The same measure for `COc1ccc2c(c1)OC1(O)COc3cc(OC)c(OC)cc3C1=C2` (configuration not stated): inactive: 15.6%; for `Cn1cnnc1Sc1ccc(CN2CCOc3ccc(C4=Cc5ccccc5CC4)cc3C2)o1`: inactive: -4.99%.

`COc1ccc2c(c1OC)C(Cc1ccccc1)N1CCc3cc4c(cc3C1C2)OCO4` (configuration not stated): the “activity change, negative = inhibition” value was inactive: -24.6%.

As for `CC(C)(C(=O)O)c1ccc(C(O)CCCN2CCC(C(O)(c3ccccc3)c3ccccc3)CC2)cc1` (configuration not stated), the activity change, negative = inhibition entry is “inactive”. The figure for `CN(C)c1ncc2nc(-c3ccccc3)c(=O)n(C3CC3)c2n1` is inactive: -1.56%; for `Cn1cccc1C(=O)N1CCC2(CC1)CN(C(c1ccccc1)c1ccccc1)C2` it is inactive: -5.03%; for `CC(N)=NCCCC[C@H](N)C(=O)O` it is inactive: -5.44%. The same measure for `C/C(=C\COc1cc(=O)[nH]c2ccccc12)CCC(O)C(C)(C)O` (configuration not stated): “inactive”; for `CCN(Cc1ccncc1)Cc1ccc2c(c1)CN(C(=O)c1ccc(C)cc1)CCO2`: inactive: -0.879%; for `O=c1c(-c2cccc(F)c2)nc2cncnc2n1C1CC1`: inactive: 13.8%. Turning to `COc1cc2c(cc1O)CCC1C2CC[C@@]2(C)C1CC[C@@H]2O` (some centres not stated), the “activity change, negative = inhibition” value is inactive: -1.06%. Turning to `O=C(O)c1cc(N=Nc2ccc(O)c(C(=O)O)c2)ccc1O`, the “activity change, negative = inhibition” value is inactive: 5.06%.

On to `COc1c2ccoc2c(OC)c2oc(=O)ccc12`, for which the “activity change, negative = inhibition” value is inactive: -3.76%. The figure for `COc1cc(S(C)=O)ccc1-c1nc2ncccc2[nH]1` (configuration not stated) is inactive: 16.8%; for `CCC1Nc2cc(Cl)c(S(N)(=O)=O)cc2S(=O)(=O)N1` (configuration not stated) it is inactive: 23.7%; for `O=C(NCCO)c1cn(C2CCN(Cc3c(F)cccc3Cl)CC2)nn1` it is inactive: 17.8%.

In the case of `CN1CCN(c2nc(-c3cccnc3)nc3ccccc23)CC1`, the “activity change, negative = inhibition” value is inactive: -10.7%. The figure for `N#Cc1cccc(NC(=O)N2CCC3(CC2)CCN(C(=O)c2cccc(F)c2)CC3)c1` is inactive: 7.59%; for `COc1ccc([C@@H]2CC(=O)c3c(O)cc(O[C@@H]4O[C@H](CO[C@@H]5O[C@@H](C)[C@H](O)[C@@H](O)[C@H]5O)[C@@H](O)[C@H](O)[C@H]4O)cc3O2)cc1O` it is inactive: 9.92% [at 75.8 µM]; for `N#CCCn1c(=O)cnc2cnc(Nc3ccccc3)nc21` it is inactive: 15.1%. The same measure for `O=c1c(-c2ccccc2)nc2cnc(Nc3ccccc3)nc2n1Cc1cccs1`: inactive: 50.8%; for `Cc1nc(C(=O)N(Cc2cc3ccc(F)cc3nc2N2CCC(O)CC2)CC2CCCO2)cs1` (configuration not stated): inactive: 16.1%. The same measure for `Cc1nc2cnc(N3CCNCC3)nc2n(C2CC2)c1=O`: inactive: 21.1%. Consider `O=C(O)COc1ccc(OCCNC[C@H](O)COc2ccccc2)cc1`, for which the “activity change, negative = inhibition” value was inactive: 23.5%. The figure for `C=CC(C1=CC(=O)C=CC1=O)c1ccccc1` (configuration not stated) is inactive: 1.15%; for `CN1CCC(=O)N([C@H](CSc2ccccc2)c2ccccc2)CC1` it is inactive: -12.2%; for `CN1CCN(c2ncc3nc(-c4ccc(Cl)cc4)c(=O)n(-c4ccccc4)c3n2)CC1` it is inactive: -4.89%. The figure for `COc1ccc2c(=O)ccoc2c1` is inactive: 9.46%. The same measure for `Cc1nnc(SCC2=C(C(=O)O)N3C(=O)C(NC(=O)Cn4cnnn4)[C@@H]3SC2)s1` (some centres not stated): inactive: 4.8%. Turning to `CN(C)CCCN1c2ccccc2Sc2ccccc21`, the activity change, negative = inhibition entry was “inactive”.

For the molecule `CCCCS(=N)(=O)CC[C@H](N)C(=O)O` (some centres not stated), the “activity change, negative = inhibition” value was inactive: -8.04% [at 75.8 µM].

For the molecule `NC(Cc1ccc(Cl)cc1)C(=O)O` (configuration not stated), the activity change, negative = inhibition result was “inactive”.

As to `COc1ccc(CNC(=O)[C@@H]2CC=C[C@@H]3CCN(Cc4ccc(Cl)c(Cl)c4)C(=O)[C@@H]32)cc1`, the “activity change, negative = inhibition” value is inactive: -10.7%.

Consider `Cc1cc(C(C)(C)C)c(O)c(C)c1CC1=NCCN1`, for which the activity change, negative = inhibition entry is “inactive”. The figure for `CS(=O)(=O)Nc1cccc(-c2nc(Nc3ccncc3)c3ccccc3n2)c1` is inactive: -12.7%; for `c1cncc(CNc2nc(-c3ccoc3)nc3ccccc23)c1` it is inactive: 28.7%; for `Cn1cc(-c2nc3cnc(N4CCNCC4)nc3n(-c3ccccc3)c2=O)c2ccccc21` it is inactive: 10.7%. The same measure for `CN(C)C(=O)c1ccc(-c2nc(-n3ccnc3)c3ccccc3n2)cc1`: inactive: 1.04%; for `CN1CCN(c2ncnc3ccc(-c4ccoc4)cc23)CC1`: inactive: 6.53%. For the molecule `COc1ccc(-n2c(=O)c(C)nc3cnc(Oc4ccccc4)nc32)cc1`, the “activity change, negative = inhibition” value is inactive: 3.4%. The same measure for `NS(=O)(=O)c1cc(C(=O)O)cc(N2CCCC2)c1Oc1ccccc1`: inactive: 15% [at 75.8 µM]; for `Cc1oc(-c2ccccc2NC(=O)c2ccsc2)nc1CN(C)CC1CC=CCC1` (configuration not stated): inactive: 31.2%; for `CS(=O)(=O)N1CCC2(CC1)CN(c1ncccn1)C2`: inactive: -18.5%. The same measure for `Cc1cc2c(c(-c3ccc4nc(C)ccc4c3)c1)OC(CNC(=O)Cc1ccn(C)c1)C2` (configuration not stated): inactive: 4.92%. As to `Cc1cc(C)cc(NC(=O)C2CC23CCN(Cc2ccc4ncccc4c2)CC3)c1` (configuration not stated), the “activity change, negative = inhibition” value is inactive: 0.743%.

For the origin of these results see PubChem BioAssay AID1645882 (National Center for Advancing Translational Sciences (NCATS), 2021).
